# Reference: the supplement of paper PMC8728848
# This is one part of the list.
# B1: AFL (Aspergillus fumigatus), Q4WW81 (protein)
# chain: STPGAQQVLFRTGIAAVNLTNHLRVYFQDVYGSIRESLYEGSWANGTEKNVIGNAKLGSPVAATSKELKHIRVYTLTEGNTLQEFAYDSGTGWYNGGLGGAKFQVAPYSRIAAVFLAGTDALQLRIYAQKPDNTIQEYMWNGDGWKEGTNLGGALPGTGIGATSFRYTDYNGPSIRIWFQTDDLKLVQRAYDPHKGWYPDLVTIFDRAPPRTAIAATSFGAGNSSIYMRIYFVNSDNTIWQVCWDHGKGYHDKGTITPVIQGSEVAIISWGSFANNGPDLRLYFQNGTYISAVSEWVWNRAHGSQLGRSALPPA
# Legend:
# Assay in all cases: glycan array binding signal (z-score within array); higher = stronger binding
# Settings in all cases: glycan notation: IUPAC condensed, linker removed
# Fuc(a1-2)Gal = target: Fuc(a1-2)Gal
# Summary of the method: (§1)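 Glycan array data came from 3228 arrays in the Consortium for Functional Glycomics database, and only arrays with an available protein sequence were kept. Glycan names were put into IUPAC-condensed notation, and columns mapping to the same glycan were averaged. The binding signal is a within-array Z-score, averaged across arrays of one protein sequence run at different concentrations or buffers and across linkers. A negative Z-score can be read as non-binding.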
# Fuc(a1-2)Gal(b1-3)GalNAc = target: Fuc(a1-2)Gal(b1-3)GalNAc
# Summary of the method: as §1
# [1] = target: Fuc(a1-2)Gal(b1-3)GalNAc(a1-3)[Fuc(a1-2)]Gal(b1-4)Glc
# Summary of the method: as §1
# [2] = target: Fuc(a1-2)Gal(b1-3)GalNAc(a1-3)[Fuc(a1-2)]Gal(b1-4)GlcNAc
# Summary of the method: as §1
# [3] = target: Fuc(a1-2)Gal(b1-3)GalNAc(b1-3)Gal
# Summary of the method: as §1
# [4] = target: Fuc(a1-2)Gal(b1-3)GalNAc(b1-3)Gal(a1-4)Gal(b1-4)Glc
# Summary of the method: as §1
# [5] = target: Fuc(a1-2)Gal(b1-3)GalNAc(b1-4)[Neu5Ac(a2-3)]Gal(b1-4)Glc
# Summary of the method: as §1
# Fuc(a1-2)Gal(b1-3)GlcNAc = target: Fuc(a1-2)Gal(b1-3)GlcNAc
# Summary of the method: as §1
# [6] = target: Fuc(a1-2)Gal(b1-3)GlcNAc(b1-2)Man(a1-3)[Fuc(a1-2)Gal(b1-3)GlcNAc(b1-2)Man(a1-6)]Man(b1-4)GlcNAc(b1-4)GlcNAc
# Summary of the method: as §1
# [7] = target: Fuc(a1-2)Gal(b1-3)GlcNAc(b1-2)Man(a1-3)[Fuc(a1-2)Gal(b1-3)GlcNAc(b1-2)Man(a1-6)]Man(b1-4)GlcNAc(b1-4)[Fuc(a1-6)]GlcNAc
# Summary of the method: as §1
# [8] = target: Fuc(a1-2)Gal(b1-3)GlcNAc(b1-3)Gal(b1-4)Glc
# Summary of the method: as §1
# [9] = target: Fuc(a1-2)Gal(b1-3)GlcNAc(b1-3)GalNAc
# Summary of the method: as §1
# [10] = target: Fuc(a1-2)Gal(b1-3)GlcNAc(b1-3)[Fuc(a1-3)[Gal(b1-4)]GlcNAc(b1-6)]Gal(b1-4)Glc
# Summary of the method: as §1
# [11] = target: Fuc(a1-2)Gal(b1-3)GlcNAc(b1-3)[Gal(b1-4)GlcNAc(b1-6)]Gal(b1-4)Glc
# Summary of the method: as §1
# [12] = target: Fuc(a1-2)Gal(b1-3)GlcNAc(b1-3)[Neu5Ac(a2-6)Gal(b1-4)GlcNAc(b1-6)]Gal(b1-4)Glc
# Summary of the method: as §1
# [13] = target: Fuc(a1-2)Gal(b1-3)[Fuc(a1-4)]GlcNAc
# Summary of the method: as §1
# [14] = target: Fuc(a1-2)Gal(b1-3)[Fuc(a1-4)]GlcNAc(b1-2)Man(a1-3)[Fuc(a1-2)Gal(b1-3)[Fuc(a1-4)]GlcNAc(b1-2)Man(a1-6)]Man(b1-4)GlcNAc(b1-4)GlcNAc
# Summary of the method: as §1
# [15] = target: Fuc(a1-2)Gal(b1-3)[Fuc(a1-4)]GlcNAc(b1-3)[Fuc(a1-3)[Gal(b1-4)]GlcNAc(b1-6)]Gal(b1-4)Glc
# Summary of the method: as §1
# [16] = target: Fuc(a1-2)Gal(b1-3)[Fuc(a1-4)]GlcNAc(b1-3)[Gal(b1-4)GlcNAc(b1-6)]Gal(b1-4)Glc
# Summary of the method: as §1
# Fuc(a1-2)Gal(b1-4)Glc = target: Fuc(a1-2)Gal(b1-4)Glc
# Summary of the method: as §1
# Fuc(a1-2)Gal(b1-4)Glc6S = target: Fuc(a1-2)Gal(b1-4)Glc6S
# Summary of the method: as §1
# Fuc(a1-2)Gal(b1-4)GlcNAc = target: Fuc(a1-2)Gal(b1-4)GlcNAc
# Summary of the method: as §1
# [17] = target: Fuc(a1-2)Gal(b1-4)GlcNAc(b1-2)Man(a1-3)[Fuc(a1-2)Gal(b1-4)GlcNAc(b1-2)Man(a1-6)]Man(b1-4)GlcNAc(b1-4)GlcNAc
# Summary of the method: as §1
# [18] = target: Fuc(a1-2)Gal(b1-4)GlcNAc(b1-2)Man(a1-3)[Fuc(a1-2)Gal(b1-4)GlcNAc(b1-2)Man(a1-6)]Man(b1-4)GlcNAc(b1-4)[Fuc(a1-6)]GlcNAc
# Summary of the method: as §1
# [19] = target: Fuc(a1-2)Gal(b1-4)GlcNAc(b1-2)[Fuc(a1-2)Gal(b1-4)GlcNAc(b1-4)]Man(a1-3)[Fuc(a1-2)Gal(b1-4)GlcNAc(b1-2)Man(a1-6)]Man(b1-4)GlcNAc(b1-4)GlcNAc
# Summary of the method: as §1
# [20] = target: Fuc(a1-2)Gal(b1-4)GlcNAc(b1-3)Gal(b1-4)GlcNAc
# Summary of the method: as §1
# [21] = target: Fuc(a1-2)Gal(b1-4)GlcNAc(b1-3)Gal(b1-4)GlcNAc(b1-3)Gal(b1-4)GlcNAc
# Summary of the method: as §1
# [22] = target: Fuc(a1-2)Gal(b1-4)GlcNAc(b1-3)GalNAc
# Summary of the method: as §1
# [23] = target: Fuc(a1-2)Gal(b1-4)GlcNAc(b1-3)[Fuc(a1-2)Gal(b1-4)GlcNAc(b1-6)]GalNAc
# Summary of the method: as §1
# [24] = target: Fuc(a1-2)Gal(b1-4)GlcNAc6S
# Summary of the method: as §1
# [25] = target: Fuc(a1-2)Gal(b1-4)[Fuc(a1-3)]GlcNAc
# Summary of the method: as §1
# [26] = target: Fuc(a1-2)Gal(b1-4)[Fuc(a1-3)]GlcNAc(b1-2)Man(a1-3)[Fuc(a1-2)Gal(b1-4)[Fuc(a1-3)]GlcNAc(b1-2)Man(a1-6)]Man(b1-4)GlcNAc(b1-4)GlcNAc
# Summary of the method: as §1
# [27] = target: Fuc(a1-2)Gal(b1-4)[Fuc(a1-3)]GlcNAc(b1-2)[Fuc(a1-2)Gal(b1-4)[Fuc(a1-3)]GlcNAc(b1-4)]Man(a1-3)[Fuc(a1-2)Gal(b1-4)[Fuc(a1-3)]GlcNAc(b1-2)Man(a1-6)]Man(b1-4)GlcNAc(b1-4)GlcNAc
# Summary of the method: as §1
# [28] = target: Fuc(a1-2)Gal(b1-4)[Fuc(a1-3)]GlcNAc(b1-3)Gal(b1-4)[Fuc(a1-3)]GlcNAc
# Summary of the method: as §1
# [29] = target: Fuc(a1-2)Gal(b1-4)[Fuc(a1-3)]GlcNAc(b1-3)Gal(b1-4)[Fuc(a1-3)]GlcNAc(b1-3)Gal(b1-4)[Fuc(a1-3)]GlcNAc
# Summary of the method: as §1
# [30] = target: Fuc(a1-2)Gal(b1-4)[Fuc(a1-3)]GlcNAc(b1-3)GalNAc
# Summary of the method: as §1
# Fuc(a1-2)Gal6S(b1-4)Glc = target: Fuc(a1-2)Gal6S(b1-4)Glc
# Summary of the method: as §1
binder,measurement,setting,value
B1,glycan array binding signal (z-score),Fuc(a1-2)Gal,3
same,glycan array binding signal (z-score),Fuc(a1-2)Gal(b1-3)GalNAc,-0.12
same,glycan array binding signal (z-score),[1],-0.201
same,glycan array binding signal (z-score),[2],-0.269
same,glycan array binding signal (z-score),[3],-0.382
same,glycan array binding signal (z-score),[4],0.18
same,glycan array binding signal (z-score),[5],-0.377
same,glycan array binding signal (z-score),Fuc(a1-2)Gal(b1-3)GlcNAc,0.189
same,glycan array binding signal (z-score),[6],-0.22
same,glycan array binding signal (z-score),[7],-0.012
same,glycan array binding signal (z-score),[8],0.571
same,glycan array binding signal (z-score),[9],-0.347
same,glycan array binding signal (z-score),[10],1.3
same,glycan array binding signal (z-score),[11],0.28
same,glycan array binding signal (z-score),[12],-0.227
same,glycan array binding signal (z-score),[13],1.21
same,glycan array binding signal (z-score),[14],-0.324
same,glycan array binding signal (z-score),[15],1.22
same,glycan array binding signal (z-score),[16],0.175
same,glycan array binding signal (z-score),Fuc(a1-2)Gal(b1-4)Glc,2.34
same,glycan array binding signal (z-score),Fuc(a1-2)Gal(b1-4)Glc6S,3.64
same,glycan array binding signal (z-score),Fuc(a1-2)Gal(b1-4)GlcNAc,2.94
same,glycan array binding signal (z-score),[17],2.23
same,glycan array binding signal (z-score),[18],0.564
same,glycan array binding signal (z-score),[19],0.439
same,glycan array binding signal (z-score),[20],2.64
same,glycan array binding signal (z-score),[21],3.04
same,glycan array binding signal (z-score),[22],-0.167
same,glycan array binding signal (z-score),[23],2.44
same,glycan array binding signal (z-score),[24],3.17
same,glycan array binding signal (z-score),[25],4.58
same,glycan array binding signal (z-score),[26],-0.042
same,glycan array binding signal (z-score),[27],0.133
same,glycan array binding signal (z-score),[28],3.88
same,glycan array binding signal (z-score),[29],4.31
same,glycan array binding signal (z-score),[30],-0.346
same,glycan array binding signal (z-score),Fuc(a1-2)Gal6S(b1-4)Glc,3.41
